# Experimental data: article PMC12820563, “FoxP3 forms a head-to-head dimer in vivo and stabilizes its multimerization on adjacent microsatellites”
# The other results are listed elsewhere or left out.
# Biological target: T1, MBP-FoxP1dN (Mus musculus, UniProt P58462 326-579)
# T1 sequence: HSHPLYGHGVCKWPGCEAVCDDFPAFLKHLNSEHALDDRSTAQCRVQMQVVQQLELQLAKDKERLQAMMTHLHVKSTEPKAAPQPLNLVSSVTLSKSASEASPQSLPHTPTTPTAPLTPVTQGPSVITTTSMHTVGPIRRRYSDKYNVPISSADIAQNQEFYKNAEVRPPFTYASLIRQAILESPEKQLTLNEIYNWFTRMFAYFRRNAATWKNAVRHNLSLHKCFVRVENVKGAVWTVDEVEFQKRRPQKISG
# Assay: PD-seq (MBP pull-down with sequencing); 20 mM Tris-HCl pH 7.5, 100 mM NaCl, 1.5 mM MgCl2, 0.4 uM protein, 0.1 uM dsDNA library, 30 min, room temperature, amylose pull-down; high values mean tight binding
# Conditions: protein: recombinant; tags: His6-MBP; chain copies: 2; dsDNA, one strand shown
# Procedure, shortened: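 Binding is the reads-per-million enrichment of pull-down relative to input, pooled across replicates. For this, 0.4 µM His6-MBP-tagged mouse FoxP3 or FoxP1 fragment lacking the N-terminus, made in E. coli, was incubated with 0.1 µM Klenow-filled double-stranded degenerate DNA library for 30 min at room temperature in Tris pH 7.5 buffer with NaCl and MgCl2. Complexes bound to amylose resin were washed three times before proteinase K released the DNA for PCR barcoding and Illumina sequencing.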
row,Sequence,binding signal
1,GATGATTGTTCTCCCAGCTGATGAATTAATGAAGTCGAGTAAACAAATTTTCCTAATCTTTCTGTTCAAGCGCCATCTAC,0.907 RPM ratio (pull-down/input)
2,GATGATTGTTCTCCCAGCTGATGAATTCACTAACTCGAGTAAACAAATTTTCCTAATCTTTCTGTTCAAGCGCCATCTAC,0.853 RPM ratio (pull-down/input)
3,GATGATTGTTCTCCCAGCTGATGAATTGTTGACTTCGAGTAAACAAATTTTCCTAATCTTTCTGTTCAAGCGCCATCTAC,2.11 RPM ratio (pull-down/input)
4,GATGATTGTTCTCCCAGCTGATGAATTGGCCATGTCGAGTAAACAAATTTTCCTAATCTTTCTGTTCAAGCGCCATCTAC,0.787 RPM ratio (pull-down/input)
5,GATGATTGTTCTCCCAGCTGATGAATTCATGAAATCGAGTAAACAAATTTTCCTAATCTTTCTGTTCAAGCGCCATCTAC,1.05 RPM ratio (pull-down/input)
6,GATGATTGTTCTCCCAGCTGATGAATTGTCTTCCTCGAGTAAACAAATTTTCCTAATCTTTCTGTTCAAGCGCCATCTAC,1.04 RPM ratio (pull-down/input)
7,GATGATTGTTCTCCCAGCTGATGAATTCAATTGTTCGAGTAAACAAATTTTCCTAATCTTTCTGTTCAAGCGCCATCTAC,1.04 RPM ratio (pull-down/input)
8,GATGATTGTTCTCCCAGCTGATGAATTGGCTCCTTCGAGTAAACAAATTTTCCTAATCTTTCTGTTCAAGCGCCATCTAC,0.818 RPM ratio (pull-down/input)
9,GATGATTGTTCTCCCAGCTGATGAATTCTATCCATCGAGTAAACAAATTTTCCTAATCTTTCTGTTCAAGCGCCATCTAC,0.892 RPM ratio (pull-down/input)
10,GATGATTGTTCTCCCAGCTGATGAATTTGAGGTATCGAGTAAACAAATTTTCCTAATCTTTCTGTTCAAGCGCCATCTAC,0.953 RPM ratio (pull-down/input)
11,GATGATTGTTCTCCCAGCTGATGAATTGTGTCAATCGAGTAAACAAATTTTCCTAATCTTTCTGTTCAAGCGCCATCTAC,1.33 RPM ratio (pull-down/input)
12,GATGATTGTTCTCCCAGCTGATGAATTCGTTCAGTCGAGTAAACAAATTTTCCTAATCTTTCTGTTCAAGCGCCATCTAC,0.884 RPM ratio (pull-down/input)
13,GATGATTGTTCTCCCAGCTGATGAATTGGCGCGTTCGAGTAAACAAATTTTCCTAATCTTTCTGTTCAAGCGCCATCTAC,0.93 RPM ratio (pull-down/input)
14,GATGATTGTTCTCCCAGCTGATGAATTGAATGGATCGAGTAAACAAATTTTCCTAATCTTTCTGTTCAAGCGCCATCTAC,0.778 RPM ratio (pull-down/input)
15,GATGATTGTTCTCCCAGCTGATGAATTAACTAACTCGAGTAAACAAATTTTCCTAATCTTTCTGTTCAAGCGCCATCTAC,0.959 RPM ratio (pull-down/input)
16,GATGATTGTTCTCCCAGCTGATGAATTTTAAGCTTCGAGTAAACAAATTTTCCTAATCTTTCTGTTCAAGCGCCATCTAC,0.827 RPM ratio (pull-down/input)

row,Sequence,binding signal
1,GATGATTGTTCTCCCAGCTGATGAATTTGTCTTATCGAGTAAACAAATTTTCCTAATCTTTCTGTTCAAGCGCCATCTAC,1.17 RPM ratio (pull-down/input)
2,GATGATTGTTCTCCCAGCTGATGAATTACTGGGCTCGAGTAAACAAATTTTCCTAATCTTTCTGTTCAAGCGCCATCTAC,0.8 RPM ratio (pull-down/input)
3,GATGATTGTTCTCCCAGCTGATGAATTCGTCGATTCGAGTAAACAAATTTTCCTAATCTTTCTGTTCAAGCGCCATCTAC,0.887 RPM ratio (pull-down/input)
4,GATGATTGTTCTCCCAGCTGATGAATTTTGAACGTCGAGTAAACAAATTTTCCTAATCTTTCTGTTCAAGCGCCATCTAC,0.909 RPM ratio (pull-down/input)
5,GATGATTGTTCTCCCAGCTGATGAATTGAATACTTCGAGTAAACAAATTTTCCTAATCTTTCTGTTCAAGCGCCATCTAC,0.936 RPM ratio (pull-down/input)
6,GATGATTGTTCTCCCAGCTGATGAATTGAGTCAGTCGAGTAAACAAATTTTCCTAATCTTTCTGTTCAAGCGCCATCTAC,0.805 RPM ratio (pull-down/input)
7,GATGATTGTTCTCCCAGCTGATGAATTATACATATCGAGTAAACAAATTTTCCTAATCTTTCTGTTCAAGCGCCATCTAC,1.27 RPM ratio (pull-down/input)
8,GATGATTGTTCTCCCAGCTGATGAATTTTCGGAATCGAGTAAACAAATTTTCCTAATCTTTCTGTTCAAGCGCCATCTAC,0.951 RPM ratio (pull-down/input)
9,GATGATTGTTCTCCCAGCTGATGAATTGATACATTCGAGTAAACAAATTTTCCTAATCTTTCTGTTCAAGCGCCATCTAC,1.53 RPM ratio (pull-down/input)
10,GATGATTGTTCTCCCAGCTGATGAATTTAAACCTTCGAGTAAACAAATTTTCCTAATCTTTCTGTTCAAGCGCCATCTAC,0.849 RPM ratio (pull-down/input)
11,GATGATTGTTCTCCCAGCTGATGAATTCTGCAAATCGAGTAAACAAATTTTCCTAATCTTTCTGTTCAAGCGCCATCTAC,1.06 RPM ratio (pull-down/input)
12,GATGATTGTTCTCCCAGCTGATGAATTGCGTGCGTCGAGTAAACAAATTTTCCTAATCTTTCTGTTCAAGCGCCATCTAC,1.18 RPM ratio (pull-down/input)
13,GATGATTGTTCTCCCAGCTGATGAATTGCCTGTCTCGAGTAAACAAATTTTCCTAATCTTTCTGTTCAAGCGCCATCTAC,0.888 RPM ratio (pull-down/input)
14,GATGATTGTTCTCCCAGCTGATGAATTCGTGTGATCGAGTAAACAAATTTTCCTAATCTTTCTGTTCAAGCGCCATCTAC,0.95 RPM ratio (pull-down/input)
15,GATGATTGTTCTCCCAGCTGATGAATTCAGTACTTCGAGTAAACAAATTTTCCTAATCTTTCTGTTCAAGCGCCATCTAC,0.913 RPM ratio (pull-down/input)
